Results as given in PubChem BioAssay AID588342 (National Center for Advancing Translational Sciences (NCATS), 2011).
Among all 360,000 compounds or so, about 25,000 (6.9%) were called active. The inconclusive results got no clear call from the source; some entries with a clear call stand among them for comparison. The call rests on the fitted dose curve; in most records, active means well fitted inhibition curve with a large enough effect; inconclusive means small, poorly fitted or top-dose-only effect; inactive means flat fitted curve, though single readings scatter. A potency beside an inconclusive call is a rough fit, not a confirmed value.

The compounds below were run against Luciferin 4-monooxygenase (Photinus pyralis) (UniProt P08659) (assay: qHTS profiling assay for firefly luciferase inhibitor/activator using purifed enzyme and Km concentrations of substrates (counterscreen for miR-21 project)). Conditions: purified FLuc, luminescence inhibition; series mostly up to 57.5 µM; activity change, negative = inhibition: at the top concentration.
Chain of UniProt P08659 (P08659 whole entry, looked up): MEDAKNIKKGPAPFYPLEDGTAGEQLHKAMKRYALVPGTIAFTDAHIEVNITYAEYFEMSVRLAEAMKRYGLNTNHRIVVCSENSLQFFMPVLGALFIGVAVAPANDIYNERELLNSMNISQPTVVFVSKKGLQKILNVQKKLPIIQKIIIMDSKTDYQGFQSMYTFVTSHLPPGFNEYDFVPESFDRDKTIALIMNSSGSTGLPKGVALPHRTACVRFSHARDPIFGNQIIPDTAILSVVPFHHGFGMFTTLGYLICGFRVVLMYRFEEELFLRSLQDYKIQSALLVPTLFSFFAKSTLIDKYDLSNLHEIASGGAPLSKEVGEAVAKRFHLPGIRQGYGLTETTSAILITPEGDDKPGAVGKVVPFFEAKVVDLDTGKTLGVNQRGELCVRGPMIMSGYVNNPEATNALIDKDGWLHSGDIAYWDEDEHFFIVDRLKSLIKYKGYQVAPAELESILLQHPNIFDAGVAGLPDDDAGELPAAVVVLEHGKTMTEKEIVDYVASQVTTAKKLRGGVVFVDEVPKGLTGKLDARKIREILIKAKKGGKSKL
How it was run: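 Biochemical qHTS of compounds, final roughly 60 µM downward over six points, against 10 nM purified firefly luciferase using Km concentrations of substrates (10 uM D-luciferin, 10 uM ATP) in Tris acetate pH 7.5 buffer; luminescence output.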
Further: nearly all actives have a fitted effect of over 55% in size.
Potency means the concentration at half of the fitted maximal effect; tags describe the fitted curve by direction and shape.
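Wherever activity change, negative = inhibition is given: plate controls were vehicle for no effect and reference inhibitor for full effect.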

| Structure (SMILES) | activity change, negative = inhibition | Potency |
| --- | --- | --- |
| COc1cccc(-c2nnc(NC(=O)c3ccccc3Br)o2)c1 | inactive: -13% | – |
| COc1cccc(/C=N/NC(=O)c2ccoc2C)c1O | – | active: 8.49 µM |
| Cc1ccc(O)c(N=CC2=C(O)c3ccccc3C2=O)c1 | – | active: 6.75 µM |
| COc1ccc(CC(=O)NCc2ccc(Cl)cc2)cc1S(=O)(=O)N1CCOCC1 | inactive: 2.4% | – |
| CC(C)(C)c1ccc(OCc2cnc(Cl)s2)cc1 | – | active: 13.5 µM |
| COc1cccc(-c2onc3ccc(C4(C)OCCO4)cc23)c1 | – | inconclusive: 37.9 µM [inhibitor, partial curve, poor fit] |
| C=CC[n+]1c(/C=C2\C=Cc3cc(C)ccc3N2CC)ccc2ccccc21 | – | inconclusive: 37.9 µM [inhibitor, partial curve, poor fit] |
| Cc1ccccc1-c1ccnc2c(-c3ccc(F)cc3)c(C)nn12 | – | inconclusive: 23.9 µM [inhibitor, partial curve] |
| COc1ccc(Cc2nc3ccc(C(=O)NCC4CCOCC4)cc3o2)cc1OC | – | inconclusive: 21.3 µM [inhibitor, partial curve, poor fit] |
| CC1(C)CC(=O)C2=C(C1)c1c(ccc3ccccc13)NC2c1ccco1 (stereo not drawn) | – | inconclusive: 16.9 µM [inhibitor, partial curve] |
| COc1ccccc1-c1noc(-c2ccc(NCc3ccccc3)c([N+](=O)[O-])c2)n1 | – | inconclusive: 26.9 µM [inhibitor, partial curve] |
| CCOC(=O)c1nnn(-c2nonc2N)c1COc1cc(C)c(Cl)c(C)c1 | – | inconclusive: 9.53 µM [inhibitor, partial curve, poor fit] |
| C=CCN(c1ccc(Cl)cc1)S(=O)(=O)c1cccc(C(=O)O)c1 | – | inconclusive: 30.1 µM [inhibitor, partial curve, poor fit] |
| O=[N+]([O-])c1cc(Cl)ccc1-c1nc(-c2ccncc2)no1 | – | inconclusive: 7.57 µM [inhibitor, partial curve] |
| CCN1CCc2nc(NC(=O)c3ccc(S(=O)(=O)N(C)C)cc3)sc2C1 | – | inconclusive: 21.3 µM [inhibitor, partial curve, poor fit] |
| O=C(COc1ccccc1C(=O)c1cnn(-c2ccccc2)c1)Nc1ccc2ccccc2c1 | – | active: 1.51 µM |
| CC1=NNC(=O)C1CC(=O)N/N=C/C(C)=C/c1ccccc1 (stereo not drawn) | – | inconclusive: 21.3 µM [inhibitor, partial curve, poor fit] |
| CC(C)Oc1ccc(C(=O)Nc2ccc(C(F)(F)F)n(C)c2=O)cc1 | – | active: 19 µM |
| Cc1cc(NC(=O)Cn2ccsc2=N)c([N+](=O)[O-])cc1C | inactive: 2.14% | – |
| Cc1ccc(-n2c(COc3cccc(C)c3)n[nH]c2=S)cc1 | – | inconclusive: 37.9 µM [inhibitor, partial curve, poor fit] |
| COCCCC1CCN(C(=O)C2CCC(=O)N(CCc3ccccc3)C2)CC1 (stereo not drawn) | – | inconclusive: 21.3 µM [inhibitor, partial curve] |
| CCN(CC)Cc1ccc(NC(=O)c2sc3cc(Cl)ccc3c2Cl)cc1 | – | inconclusive: 13.5 µM [inhibitor, partial curve] |
| COc1ccc(OC)c(NC(=O)CN2CCC(C(=O)c3ccc(C)cc3)CC2)c1 | inactive: -0.432% | – |

| Structure (SMILES) | activity change, negative = inhibition | Potency |
| --- | --- | --- |
| CC(=O)Nc1ccc(S(=O)(=O)N2CCCC(C(=O)N3CCN(c4ccccc4)CC3)C2)cc1 (stereo not drawn) | inactive: 9.6% | – |
| CC(=O)c1sc(N/N=C\c2ccc(Br)cc2)nc1C | – | active: 5.36 µM |
| CCCN(CCC)C(=O)Cn1c(=O)n(-c2ccc(Cl)c(Cl)c2)c(=O)c2c(C)c(C(=O)N(C)C)sc21 | inactive: -5.26% | – |
| CC/C(=C\C(=O)c1ccncc1)Nc1ccc(O)cc1 | – | inconclusive: 15.1 µM [inhibitor, partial curve, poor fit] |
| CCOc1ccc(-c2nnc(SCC(=O)N(CC)c3cccc(C)c3)o2)cc1 | – | inconclusive: 4.78 µM [inhibitor, partial curve, poor fit] |
| CNc1sc(C(=O)c2cccs2)c(N)c1-c1nc2ccccc2s1 | – | active: 2.69 µM |
| CC(NC(=O)c1cc2ccccc2oc1=O)c1ccccc1 (stereo not drawn) | – | inconclusive: 26.9 µM [inhibitor, partial curve, poor fit] |
| CCc1ccc(NC(=O)CSc2nc3cc(C(=O)OC)ccc3c(=O)n2Cc2ccco2)cc1 | inactive: -2.18% | – |
| CC(C)CN1C(=O)c2ccc(C(=O)Nc3ccccc3C(=O)O)cc2C1=O | – | active: 3.01 µM |
| O=C(NC1CCCC1)c1cc(COc2ccc3ncccc3c2)on1 | – | inconclusive: 37.9 µM [inhibitor, partial curve, poor fit] |
| COc1cccc(C(=O)N2CCC(n3nccc3NC(=O)C3CCOC3)CC2)c1 (stereo not drawn) | inactive: 1.7% | – |
| CCN(CC)S(=O)(=O)c1ccc(OC)c(NC(=O)c2cc(C)on2)c1 | inactive: 1.8% | – |
| CCN(CC)c1ccc2c(Nc3ccccc3)c(C=O)c(=O)oc2c1 | – | inconclusive: 26.9 µM [inhibitor, single point] |
| Cc1ccc(CNC(=O)CSCc2nc(-c3cccc(C)c3)oc2C)cc1 | – | inconclusive: 21.3 µM [inhibitor, partial curve, poor fit] |
| CCC(NC(=O)Nc1cccc(C)c1)c1c(-n2cccc2)sc2c1CCN(C)C2 (stereo not drawn) | inactive: -1.38% | – |
| COc1ccc(OCCN2C(=O)c3cccc(N)c3C2=O)cc1 | – | inconclusive: 23.9 µM [inhibitor, single point] |
| COc1ccc(NC(=O)CSc2ccccn2)cc1 | – | inconclusive: 30.1 µM [inhibitor, single point] |
| COC(=O)[C@@H]1[C@@H](C#N)C2(c3ccccc3-c3ccccc32)N(c2ccc(Cl)cc2)N1C#N | – | inconclusive: 23.9 µM [inhibitor, single point] |
| Cc1cccc(NC(=O)COc2ccc3oc4c(c3c2)CCCC4)c1 | – | inconclusive: 9.53 µM [inhibitor, partial curve, poor fit] |
| Cc1ccc(-c2nc(N)sc2C)cc1 | – | inconclusive: 21.3 µM [inhibitor, partial curve, poor fit] |
| COc1ccccc1N1CCN(c2ccc3ccccc3n2)CC1 | – | active: 0.953 µM |
| O=C(COC(=O)c1n[nH]c2ccccc12)c1cccc(Br)c1 | – | inconclusive: 26.9 µM [inhibitor, single point] |
| CCOC(=O)C1CCN(C(=O)COC(=O)c2ccc3[nH]c4c(c3c2)CCCC4)CC1 | – | inconclusive: 8.49 µM [inhibitor, partial curve] |

| Structure (SMILES) | activity change, negative = inhibition | Potency |
| --- | --- | --- |
| COc1cc(/C=N/NC(=O)NC2CCCCC2)cc(OC)c1O | – | inconclusive: 21.3 µM [inhibitor, partial curve, poor fit] |
| O=c1[nH]c(/C=C\c2ccccc2F)nc(O)c1[N+](=O)[O-] | – | inconclusive: 37.9 µM [inhibitor, partial curve, poor fit] |
| CC(=O)c1cccc(OCc2cc(C(=O)NC(C)Cc3cccnc3)no2)c1 (stereo not drawn) | – | inconclusive: 30.1 µM [inhibitor, single point] |
| Cc1cc(C(=O)CN2C(=O)NC(c3ccccc3)(c3ccccc3)C2=O)c(C)n1Cc1ccco1 | – | inconclusive: 16.9 µM [inhibitor, partial curve] |
| O=C(N/N=C/c1ccc(Cl)c([N+](=O)[O-])c1)c1cnccn1 | – | inconclusive: 37.9 µM [inhibitor, partial curve, poor fit] |
| CSc1ccccc1NC(=O)CN(C)C(=O)c1ccc2c(c1)OCCO2 | inactive: -1.48% | – |
| O=C(Nc1nnc(C(F)(F)F)s1)c1c(F)cccc1F | – | inconclusive: 37.9 µM [inhibitor, partial curve, poor fit] |
| S=c1nc(-c2cccc(Cl)c2)[nH][nH]1 | – | inconclusive: 37.9 µM [inhibitor, partial curve, poor fit] |
| CCc1nnc(NS(=O)(=O)c2ccc(NC(=O)/C=C/c3ccc(OC)cc3OC)cc2)s1 | – | inconclusive: 19 µM [inhibitor, partial curve, poor fit] |
| O=C(Cc1ccccc1)N/N=C/c1ccc2c(c1)OCO2 | – | active: 15.1 µM |
| Cc1nc2ccc(NC(=S)NC3CCCCC3)cc2nc1C | – | active: 16.9 µM |
| CCOC(=O)c1cnc2ccc(C)cc2c1Sc1ccccc1C(=O)OC | – | inconclusive: 23.9 µM [inhibitor, single point] |
| Cc1ccc(NC(=S)NCc2cccn2C)cc1 | – | inconclusive: 37.9 µM [inhibitor, single point] |
| CCOC(=O)c1ccc(-n2ncc(C(=O)OCC)c2N)cc1 | – | inconclusive: 23.9 µM [inhibitor, partial curve, poor fit] |
| O=C(CSc1nnc(-c2c[nH]c3ccccc23)n1-c1ccc(F)cc1)NCc1ccco1 | – | inconclusive: 23.9 µM [inhibitor, single point] |
| COCCNC(=S)N1CCN(c2nc(-c3ccc(Cl)cc3)cs2)CC1 | – | inconclusive: 23.9 µM [inhibitor, partial curve, poor fit] |
| Brc1cccc2sc(N3CCCC3)nc12 | – | inconclusive: 37.9 µM [inhibitor, partial curve, poor fit] |
| Cc1ccc(NC(=O)C2CCCN2S(=O)(=O)c2ccc3nc(-c4ccccc4)[nH]c3c2)cc1C (stereo not drawn) | inactive: -14.4% | – |
| Cc1ccc(-c2nn(-c3ccccc3)cc2C(=O)O)o1 | – | inconclusive: 26.9 µM [inhibitor, partial curve, poor fit] |
| CCS(=O)(=O)Nc1ccc(C(=O)NCCSc2ccccc2)cc1 | – | inconclusive: 26.9 µM [inhibitor, single point] |
| Cc1nc2c(oc3ccccc32)c(=O)o1 | – | active: 21.3 µM |
| CC(=O)Oc1ccc2c(c1)C(=O)c1ccccc1C2=O | – | active: 8.49 µM |
